Among the data in the supplement of paper PMC4604168 (melanoma cell lines) are cell count values, retold here.

Molecules are shown by their SMILES. The list shows a part of the results. Single values are uncertain, as repeats are few or missing.

Among the test systems are A101D; A2058; A375; 501Mel.
What all share (assay): cell count relative to DMSO control; melanoma cells; higher = more viable cells
What all share (details): library dose: standard library concentration; 72 h
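Note: cells treated in 1,536-well plates, then fixed and DAPI-stained, with nuclei counted from automated high-throughput microscope images.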

With `N#CC[C@H](C1CCCC1)n1cc(-c2ncnc3[nH]ccc23)cn1` [ruxolitinib] + Cc1ccc(NC(=O)c2cccc(N(C)C)c2)cc1NC(=O)c1ccc(O)cc1 [ZM336372] (first compound 5 µM, partner dose 10 µM), the cell count with A101D amounted to 109%; in the experiment on A2058, 88.4%; in the experiment on A375, 140%.

In the case of `CC[C@]1(O)C[C@H]2CN(CCc3c([nH]c4ccccc34)[C@@](C(=O)OC)(c3cc4c(cc3OC)N(C=O)[C@H]3[C@@](O)(C(=O)OC)[C@H](OC(C)=O)[C@]5(CC)C=CCN6CC[C@]43[C@@H]65)C2)C1` [vincristine] + CC(C)(C)c1cnc(CSc2cnc(NC(=O)C3CCNCC3)s2)o1 [SNS-032] (first compound 0.0005 µM, partner dose 0.05 µM), the cell count came to 67.2% with A101D, 27.8% with A2058 and 73.8% in the experiment with A375.

Regarding `CC[C@]1(O)C[C@H]2CN(CCc3c([nH]c4ccccc34)[C@@](C(=O)OC)(c3cc4c(cc3OC)N(C=O)[C@H]3[C@@](O)(C(=O)OC)[C@H](OC(C)=O)[C@]5(CC)C=CCN6CC[C@]43[C@@H]65)C2)C1` [vincristine] + Cc1cc(N2CCOCC2)cc2[nH]c(-c3c(NC[C@@H](O)c4cccc(Cl)c4)cc[nH]c3=O)nc12 [BMS536924] (first compound 0.0005 µM, partner dose 1 µM), the cell count in the experiment with A101D was determined as 33.7%; in the experiment with A2058, 7.2%; with A375, 83.2%.

Regarding `N#CC[C@H](C1CCCC1)n1cc(-c2ncnc3[nH]ccc23)cn1` [ruxolitinib] + Cn1cc(/C=C2\C(=O)Nc3cccnc32)c2ccccc21 [GW441756] (first compound 5 µM, partner dose 2 µM), the cell count in the experiment on 501Mel turned out to be 98.2%; with A101D, 122%; in the experiment with A2058 it was 94.4%; with A375, 196%.

As to `CC[C@]1(O)C[C@H]2CN(CCc3c([nH]c4ccccc34)[C@@](C(=O)OC)(c3cc4c(cc3OC)N(C=O)[C@H]3[C@@](O)(C(=O)OC)[C@H](OC(C)=O)[C@]5(CC)C=CCN6CC[C@]43[C@@H]65)C2)C1` [vincristine] + O=C(Nc1ccccc1)c1cc([N+](=O)[O-])ccc1Cl [GW9662] (first compound 0.0005 µM, partner dose 10 µM), the cell count was 38.5% in the experiment on 501Mel, 30.2% with A101D, 8.99% in the experiment with A2058 and 107% in the experiment on A375.

In the case of `CC[C@]1(O)C[C@H]2CN(CCc3c([nH]c4ccccc34)[C@@](C(=O)OC)(c3cc4c(cc3OC)N(C=O)[C@H]3[C@@](O)(C(=O)OC)[C@H](OC(C)=O)[C@]5(CC)C=CCN6CC[C@]43[C@@H]65)C2)C1` [vincristine] + CS(=O)(=O)CCNCc1ccc(-c2ccc3ncnc(Nc4ccc(OCc5cccc(F)c5)c(Cl)c4)c3c2)o1 [lapatinib] (first compound 0.0005 µM, partner dose 4 µM), the cell count in the experiment with A101D was found to be 31.4%; in the experiment on A2058, 14.8%; in the experiment with A375 it was 71.3%.

On to `Cc1cc(Nc2cc(N3CCN(C)CC3)nc(Sc3ccc(NC(=O)C4CC4)cc3)n2)n[nH]1` [Tozasertib] + COc1ccc(-c2ccc3c(N4CCOCC4)nc(N4C[C@@H](C)O[C@@H](C)C4)nc3n2)cc1CO [KU0063794] (first compound 0.03 µM, partner dose 0.1 µM), for which the cell count with 501Mel amounted to 83.3%; in the experiment on A101D, 79.3%; in the experiment with A2058 it was 73.1%; with A375 it was 97.9%.

Take `CC[C@]1(O)C[C@H]2CN(CCc3c([nH]c4ccccc34)[C@@](C(=O)OC)(c3cc4c(cc3OC)N(C=O)[C@H]3[C@@](O)(C(=O)OC)[C@H](OC(C)=O)[C@]5(CC)C=CCN6CC[C@]43[C@@H]65)C2)C1` [vincristine] + COc1cc([C@@H]2c3cc4c(cc3[C@@H](O[C@@H]3O[C@@H]5CO[C@@H](C)O[C@H]5[C@H](O)[C@H]3O)[C@H]3COC(=O)[C@H]23)OCO4)cc(OC)c1O [etoposide] (first compound 0.0005 µM, partner dose 0.1 µM): the results for the cell count in the experiment with A101D, in the experiment on A2058 and in the experiment with A375 were 69.3%, 44.1% and 77.8%, respectively.

In the case of `N#CC[C@H](C1CCCC1)n1cc(-c2ncnc3[nH]ccc23)cn1` [ruxolitinib] + O=C(O)C(=O)Nc1sc2c(c1C(=O)O)CCNC2 [TCS401] (first compound 5 µM, partner dose 8.33333 µM), the cell count worked out at 68.2% with 501Mel, 94% in the experiment with A101D, 85.6% with A2058 and 158% in the experiment on A375.

In the case of `N#CC[C@H](C1CCCC1)n1cc(-c2ncnc3[nH]ccc23)cn1` [ruxolitinib] + CC(C)CCN1c2nc(Nc3cc(F)c(O)c(F)c3)ncc2N(C)C(=O)C1C [BID1870] (first compound 5 µM, partner dose 1 µM), the cell count turned out to be 89.6% with 501Mel, 66% in the experiment with A101D, 71.3% with A2058 and 119% in the experiment with A375.

Regarding `Cc1cc(Nc2cc(N3CCN(C)CC3)nc(Sc3ccc(NC(=O)C4CC4)cc3)n2)n[nH]1` [Tozasertib] + COc1cc(N2CCC(N3CCN(C)CC3)CC2)ccc1Nc1ncc(Cl)c(Nc2ccccc2S(=O)(=O)C(C)C)n1 [NVP-TAE684] (first compound 0.03 µM, partner dose 0.4 µM), the cell count in the experiment with 501Mel worked out at 91.8%; in the experiment with A101D it was 92.8%; with A2058, 42.6%; in the experiment with A375, 87.9%.

With `N#CC[C@H](C1CCCC1)n1cc(-c2ncnc3[nH]ccc23)cn1` [ruxolitinib] + C[C@]1(c2nc3c(C(N)=O)cccc3[nH]2)CCCN1 [Veliparib] (first compound 5 µM, partner dose 7 µM), the cell count stood at 92.6% with A101D and 53.7% with A2058.

In the case of `N#CC[C@H](C1CCCC1)n1cc(-c2ncnc3[nH]ccc23)cn1` [ruxolitinib] + CCCCCCCCCCCC1=C(O)C(=O)C=C(O)C1=O [Embelin] (first compound 5 µM, partner dose 6 µM), the cell count was 103% in the experiment with 501Mel, 107% in the experiment with A101D, 80% in the experiment with A2058 and 128% with A375.

Consider `Cc1cc(Nc2cc(N3CCN(C)CC3)nc(Sc3ccc(NC(=O)C4CC4)cc3)n2)n[nH]1` [Tozasertib] + CCCCCCCCCCCC1=C(O)C(=O)C=C(O)C1=O [Embelin] (first compound 0.03 µM, partner dose 6 µM), for which the cell count with 501Mel worked out at 78%; in the experiment on A101D, 67.4%; in the experiment on A2058, 80.7%; in the experiment on A375, 103%.

Take `N#CC[C@H](C1CCCC1)n1cc(-c2ncnc3[nH]ccc23)cn1` [ruxolitinib] + COc1cc2ncnc(Nc3ccc(Oc4ccccc4)cc3)c2cc1OC [SrcI1] (first compound 5 µM, partner dose 10 µM): the cell count in the experiment on 501Mel is 89.3%; in the experiment with A101D, 75.2%; in the experiment on A2058 it was 68%; with A375 it was 130%.

As for `Cc1cc(Nc2cc(N3CCN(C)CC3)nc(Sc3ccc(NC(=O)C4CC4)cc3)n2)n[nH]1` [Tozasertib] + O=C1NC(=O)/C(=C/c2ccc(-c3ccc(F)cc3O)o2)S1 [AS252424] (first compound 0.03 µM, partner dose 5 µM), the cell count in the experiment on 501Mel was 72.1%; in the experiment on A101D, 81.6%; in the experiment with A2058 it was 81.9%; with A375, 126%.

Turning to `Cc1cc(Nc2cc(N3CCN(C)CC3)nc(Sc3ccc(NC(=O)C4CC4)cc3)n2)n[nH]1` [Tozasertib] + Cn1cc(/C=C2\C(=O)Nc3cccnc32)c2ccccc21 [GW441756] (first compound 0.03 µM, partner dose 2 µM), the cell count was found to be 70.9% with 501Mel, 90% with A101D, 78.7% in the experiment on A2058 and 135% in the experiment with A375.

Turning to `Cc1cc(Nc2cc(N3CCN(C)CC3)nc(Sc3ccc(NC(=O)C4CC4)cc3)n2)n[nH]1` [Tozasertib] + OCc1c[nH]c2ccccc12 [Indole-3-carbinol] (first compound 0.03 µM, partner dose 4 µM), the cell count in the experiment on A101D came out at 85.5%; with A2058, 76.6%; in the experiment on A375, 94.2%.

Regarding `Cc1cc(Nc2cc(N3CCN(C)CC3)nc(Sc3ccc(NC(=O)C4CC4)cc3)n2)n[nH]1` [Tozasertib] + Cn1cnc2c(F)c(Nc3ccc(Br)cc3Cl)c(C(=O)NOCCO)cc21 [selumetinib] (first compound 0.03 µM, partner dose 0.075 µM), the cell count in the experiment on A101D is 64.1%; in the experiment on A2058, 79.1%; in the experiment on A375, 90.7%.

As for `N#CC[C@H](C1CCCC1)n1cc(-c2ncnc3[nH]ccc23)cn1` [ruxolitinib] + N#Cc1c(O)c2c(-c3ccc(-c4ccccc4O)cc3)csc2[nH]c1=O [A769662] (first compound 5 µM, partner dose 10 µM), the cell count in the experiment with 501Mel amounted to 102%; in the experiment with A101D, 115%; in the experiment on A2058 it was 71.9%; in the experiment on A375 it was 115%.

For `CC[C@]1(O)C[C@H]2CN(CCc3c([nH]c4ccccc34)[C@@](C(=O)OC)(c3cc4c(cc3OC)N(C=O)[C@H]3[C@@](O)(C(=O)OC)[C@H](OC(C)=O)[C@]5(CC)C=CCN6CC[C@]43[C@@H]65)C2)C1` [vincristine] + COC(=O)c1sccc1S(=O)(=O)Nc1ccc(Nc2ccccc2)cc1OC [GSK0660] (first compound 0.0005 µM, partner dose 5 µM), the cell count stood at 37.2% in the experiment with A101D, 6.77% in the experiment on A2058 and 80.2% in the experiment with A375.

As for `Cc1cc(Nc2cc(N3CCN(C)CC3)nc(Sc3ccc(NC(=O)C4CC4)cc3)n2)n[nH]1` [Tozasertib] + C=CCNC1=C2C[C@@H](C)C[C@H](OC)[C@H](O)[C@@H](C)/C=C(\C)[C@H](OC(N)=O)[C@@H](OC)/C=C\C=C(/C)C(=O)NC(=CC1=O)C2=O [Tanespimycin] (first compound 0.03 µM, partner dose 0.01 µM), the cell count was determined as 73.6% with A101D, 75.4% in the experiment on A2058 and 85.4% in the experiment on A375.

For `Cc1cc(Nc2cc(N3CCN(C)CC3)nc(Sc3ccc(NC(=O)C4CC4)cc3)n2)n[nH]1` [Tozasertib] + Oc1nc(-c2ccc(C(F)(F)F)cc2)nc2c1CSCC2 [XAV939] (first compound 0.03 µM, partner dose 10 µM), the cell count in the experiment on 501Mel was 92.4%; in the experiment on A101D it was 71.4%; in the experiment on A2058 it was 76.5%; in the experiment with A375, 70.5%.

Turning to `Cc1cc(Nc2cc(N3CCN(C)CC3)nc(Sc3ccc(NC(=O)C4CC4)cc3)n2)n[nH]1` [Tozasertib] + OCCn1cc(-c2cnc3nnn(Cc4ccc5ncccc5c4)c3n2)cn1 [PF04217903] (first compound 0.03 µM, partner dose 5 µM), the cell count came to 74.9% in the experiment with A101D, 67.6% in the experiment with A2058 and 90.6% in the experiment on A375.

For the compound `CC[C@]1(O)C[C@H]2CN(CCc3c([nH]c4ccccc34)[C@@](C(=O)OC)(c3cc4c(cc3OC)N(C=O)[C@H]3[C@@](O)(C(=O)OC)[C@H](OC(C)=O)[C@]5(CC)C=CCN6CC[C@]43[C@@H]65)C2)C1` [vincristine] + COCC[n+]1c2c(n(Cc3cnccn3)c1C)C(=O)c1ccccc1C2=O [YM155] (first compound 0.0005 µM, partner dose 0.002 µM), the cell count in the experiment with A101D was 70%; with A2058 it was 19.9%; in the experiment on A375, 75.7%.
